The record followed here is PubChem BioAssay (NCI).

This assay deals with NCI-H322M lung. Nature of the assay: NCI tumour cell line growth inhibition, 48 h.

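Five compound concentrations were applied to cells in 96-well plates for 48 hours; endpoints were derived by simple linear interpolation of the resulting dose-response curve. GI50 marks 50% less growth. Definition used: TGI = concentration required for complete inhibition of growth.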 Bounds are passed on as bounds.

`O=C(O)c1ccc(-c2ccc(/C=N/NC(=O)c3[nH]c4ccc(Br)cc4c3-c3ccccc3)s2)cc1`: the GI50 was 17.5 µM and the TGI was found to be 50.4 µM.

As to `CC1=C(C(=O)Nc2ccccc2)C(c2cccc3ccccc23)n2c(nc3ccccc32)N1` (centres undefined), the GI50 was more than 100 µM and the TGI was more than 100 µM.
